These results are taken from the supplement of paper PMC10126150.

Sequences with one replicate were seen in a single cluster, so their values are uncertain.

The subject of this data set is ATP. Description: switch fluorescence ratio, 500 uM ATP over buffer (Cy3 cluster intensity, sum of 5 cycles each) (fold (ratio)); higher = stronger signal-on switching upon ATP binding; sequences stand for … in TCGTCGGCAGCGTCAGATGTGTATAAGAGACAGTTTTTTTTTTTTTTTTTTTTTTTTT…TC. To be noted: aptamer strand: ATP DNA aptamer (quencher-CACCTGGGGGAGTATTGCGGAGGAAGG + anchor), 100 nM annealed; ATP concentration: 500 uM; one replicate. The method, boiled down:
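For every switch-domain sequence, the fluorescence ratio is the mean of per-cluster values, each being summed target-cycle Cy3 intensity over summed buffer-cycle Cy3 intensity. Clusters outside 100-1000 RFU were excluded. On a modified Illumina MiSeq flow-cell, the Cy3-labelled switching-strand clusters were annealed to 100 nM quencher-labelled ATP aptamer, imaged in selection buffer and then after 15 min with 500 uM ATP at 22 °C. Five such cycles were run, with NaOH stripping and re-annealing between them.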
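Note: ATP exposure 15 min at 22 °C before imaging.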

Take CCAAGGTGCG: the switch fluorescence ratio came out at 1.36. On to GTTACGGAGC, for which the switch fluorescence ratio came to 1.37. As for CAGCATGCCA, the figure is 0.99; as for AGTTTGAATG, 1.04; as for GGGGCCACCA, 1.16. For ATAGGAAGGT the value was 1.04; for TCATACATAG, 0.997; for ATATAATTCC, 1.04. As to GTATCTGGTG, the switch fluorescence ratio was found to be 1.05. For CTGCGTGGTG the value was 1.03. Consider CACTAGGCGA, for which the switch fluorescence ratio is 1. For GGCTATGAAG the value was 1.02; for AACTGGGTT, 0.95; for TGGCATTGTT, 0.981. As for ACTCTGCCGC, the figure is 1.78; as for GGAGCGGGAG, 1.16.

Take ACACCAGCG: the switch fluorescence ratio is 1.23. For CTGGGGCTCG the value was 0.939; for AGGCAGGGCG, 1. Consider GCCAACCCTT, for which the switch fluorescence ratio was 1.08.

As for ACCAACTTTT, the switch fluorescence ratio amounted to 1.23. For TCAGTTATG, the switch fluorescence ratio turned out to be 0.992. As for ATAGGTCGCG, the figure is 0.979; as for CGACGTAAGG, 1.33. For the sequence CTAGCGGCTT, the switch fluorescence ratio came out at 1.

In the case of CAATCTAGTG, the switch fluorescence ratio came out at 1.02. As for GAGGGACAGG, the figure is 1.02.

On to CAATGCAAGG, for which the switch fluorescence ratio is 1.11. For GCAGAAGTTA the value was 1.03; for CGTTAAATTG, 0.983; for GGGTCGATAT, 0.981. As for ATTTTTGAAA, the figure is 0.969; as for AAAGTTGTA, 0.956; as for GAAAGATTAA, 0.932. For CCGGTCGTTG the value was 0.995; for AACCGCGCGG, 0.99; for AGTATATGTC, 0.924. Consider TATAAATACA, for which the switch fluorescence ratio was 1.01. For TAAGAAAGAA the value was 1.01. With GAGTATAAC, the switch fluorescence ratio was 0.972.

For the sequence ACTAATCGGC, the switch fluorescence ratio is 1. For the sequence GCGGCTAGAT, the switch fluorescence ratio was 1.03. GTGCCCCGAT: the switch fluorescence ratio amounted to 0.96.

TAGGTCCGTG: the switch fluorescence ratio was 0.959. As for GATGGCGCGT, the figure is 1.07. As for TGTAGCTGGT, the figure is 0.972; as for CGTACGACGT, 0.963.

As to CCACGCCGTT, the switch fluorescence ratio was determined as 0.998.

Take CGTGAACCCC: the switch fluorescence ratio stood at 1.05.

As for GAAGGTCTTT, the switch fluorescence ratio stood at 0.956. As for TTTGATGGAG, the figure is 0.998. As for AGCGGGTGGG, the figure is 1.03; as for AACCTGTTTG, 1; as for GAGAATGGTT, 1.01. As to TTCTTTGCCA, the switch fluorescence ratio amounted to 1. As for TTAAACACCG, the figure is 1.1. For GCTGTGATCG the value was 1.01; for TTCTATAGTG, 1.03. For TTAATGAGTC the value was 1.04. Regarding AGACCGAACA, the switch fluorescence ratio was found to be 1.15. For TGAAAGATGG the value was 1.03; for GGTGCGAGA, 1.03. As for AGTAAGGTGA, the figure is 1.17; as for CTCGTGCAGC, 1.18; as for ACGCGTTTCT, 1.02.

Consider AGTCAGCATA, for which the switch fluorescence ratio turned out to be 1.3. Regarding ATTGAGGTGC, the switch fluorescence ratio was 1.06.

Consider GATACTAAAT, for which the switch fluorescence ratio was found to be 1.01. As for AATTGCGTTA, the figure is 0.975.

In the case of TAGGTGCCG, the switch fluorescence ratio is 0.994.

Consider AAGAGCTTAG, for which the switch fluorescence ratio worked out at 1.01. For AAATGCTCCG the value was 1.05; for GAGCCGGTTG, 0.961. For TTAATACCTC the value was 1.05. As for TGGCGTCTAT, the figure is 1.06; as for CCCAAACGCG, 0.948; as for TAGAAAAGCG, 1. On to CGCCCAGTTA, for which the switch fluorescence ratio was 1.09.

For the sequence GTGCGGAAGT, the switch fluorescence ratio turned out to be 1.03.
